According to the RNAGym collection of RNA variant scans (doi:10.7554/elife.90254):
Read counts are not given, so values of variants with three or more changes are uncertain.

B1: LINE1-mini (parent)
chain: GGCAGAGCUCAACACAGCGUGGCAAAGUGGCUGUGGCUAGACUGCC

Variants of: B1
Test: self-cleavage, relative activity (ratio to wild type); higher = more cleavage; in vitro, sequencing; the parent is a self-cleaving ribozyme

Variant	self-cleavage
GGCAGACCUCAAAACAGCGUGGCAAAGUGCCUGUGGCUAGACUGCC	0.09
GGCAGACCUCAACACAGCGUGGCAGAGUGGCUGUGGCGAGACUGCC	0.02
GGCAGACCUCACCACAGCAUUGCAAAGUGGCUGUGGCUAGACUGCU	0.01
GGCAGACCUCGACACACCGUGCCGCAGUGGCUGUGGUUAGACUCCC	0
GGCAGACCUUAACAGAGCGCGGGAAAGUGGCUGUGUUUAGACUGCC	0.01
GGCAGACCUCAAAGCAGCGUGGCAAAGUGGCUGAGUCUAUACUGCC	0.04
GGCAGACAUCAACACAGCGUGGCAAAGUGGCUGUGCCUAGACUGCA	0.19
GGCAGACCUCAACACAGAGUGGCAAAGUGGCUGUGACUAGACUACC	0.07
GGCAGACCUCAACACAGCGUGGCAAGGUGGCUGUGGAUAGACUGUC	0.07
GGCAGACCUCGACACAGCGCGGCAAAGUGGCUGUGGCUAGACUCCC	0.01
GGCAGACCUCAACAUAGCGUGGCAAAGUGGCUAUGGCUAGACUGCC	0.19
GGCAGACUUCAACACAGCGUGGCAAAGAGGCUGUGGUUAAACGGCG	0.06
GGCAGACCUCAACACAGCGUGGCAACGCGGCUGUGGCUGGACUGAC	0.05
GGCAGACCUCAACAGAGCAUGGCAAAGGGGCUGUGGAUAGACUGCC	0.01
GGCAGACCUCAACACAGGGUGGCAAAGUGGCUGUGGCUGGACUGCC	0.08
GGCAGACCUCAAAACAGCGUGGCAAAGUGGCUGUGGCUAGACAGCC	0.04
GGCAGACCUCAACACAGCGUGGGAAAGUGGCUGUGGCCAGACUCCA	0.07
GGCAGACUUCAACACAGCGUGACAAAUUGGCUGUGACUAGACUGCC	0.06
GGCAGACCUCCACACACCGUGGCAAAGAGGCUGUGUCUAGACUGCC	0.01
GGCAGACCUCAACAGAGCGUGGUAAAGUGGCUGUGGCUAGACUCCC	0.17
GGCAGACCUCGACACCGCGUGGCAAAGUGGCUGUGACUAAACUGCC	0.01
GGCAGACCUCAAUACAGCGUGACAAAGUGGCUGUGGCUAGACUGCC	0.18
GGCAGACCUAAACACACCGUGGCAAAGUGGCUGUGGCUGGACUGCC	0.01

Variant	self-cleavage
GGCAGACCUCAAAACAGCGUGGCAAAGUGGCUGUGGCUAGACUGUC	0.13
GGCAGACUUCAACACAGCGUGGCAAAGUGGCUGUGGCUAGACCGCC	0.15
GGCAGACCUCAACACAGCGUGGCAAGGUGGCUGUCGCUAGACUCUC	0.01
GGCAGACCUCAACAUAGCGUGGCUAAGUGGAUGUGGCUAGACUGCC	0.32
GGCAGACUUAAACACAACGUGGCAAAGUGGCUGUGGCUAGACUGCC	0.01
GGCAGACCUCAACACAGCGUGGCAACGUGGCUGUGGCUAGUCUGCC	0.12
GGCAGACCUACACACAGCGUGGGAAAGUGGCUGUGGCUAGACUGCC	0.02
GGCAGACCUCAACACUCCGUGGCAAAGUGGCUGUGGCUAGACUGCC	0.05
GGCAGACCUCAACACCGCGUGGCAAAGUGGCUGGGGCUAGACUGCC	0.01
GGCAGACCUCAACUCAGCGUGGCAAAGUGGCUUUGGAUAGACUGUC	0.06
GGCAGACCUGUACACAGCGUGGCAAAGUGGCUGUGGCUAGACUGCG	0.01
GGCAGACCUGAACACAGUGUGGCAAAGUGGCUGUGGCUAGACUGCC	0.03
GGCAGACCUCCACAAAGCGUGGCAAAGUGGCUGUGGCUGGACUGCC	0.01
GGCAGACCUCAACACAGCGUGGCAUAGUGUCUGUGGCUAGACUGCC	0.05
GGCAGACCUAAACACAGCGUGGCAAAGUGGCUGUGGCUAGGCUGCC	0.01
GGCAGACCUCAAUACAGCGUGGAAAAGUGGCUGUGACUAGACUGCC	0.3
GGCAGACCUCAACACAGCGUGGAAAAGUGGCUGUGGCUACACGGGC	0.03
GGCAGACCUCCACACAGUGGGGCAAAGUGGCUAUGGCUAGCCUGCC	0
GGCAGACCUCAACAUAGCGUGGCAAAGUGGCUGUGGCUAGACCGCC	0.08
GGCAGACCUCUCCACAGCGUGGCAAAGUGGCUGUGUCUAUACUGCC	0.01
GGCAGACCUCAAUACAUCUUGGCAAAGUGGAUGUGGCUAGACUGCC	0.1
GGCAGACCUCUACACAGCGUGGCAAAAUUGCUGUGGCUAGACUGCC	0
GGCAGACCUCAACACAGCGUGGCGAUGUGGCUCUGGGUAGACUGCC	0.3

Variant	self-cleavage
GGCAGACCUUAACAAAGCGUGGCAAAGUGGCUGUGGCUAGACUGCC	0.06
GGCAGACCUCAAAACAGCGUGACAAAGUGGCUCUGGCUAGACUGCC	0.09
GGCAGACCUCAUCACAGAGCGGGAAAGUGGCUGUGGCUAGACUGCC	0.13
GGCAGACCUCAACCGAGCGUGGCCAAGUGGCUGUGGAUAGACUGCC	0.02
GGCAGACCUCAAAAAGGCGUGGAAAAGUGGCUGUGGCUAGACUGUC	0.33
GGCAGACCUCAACACAGCGUGGAAAAGUGGCUGUGUCUAGACUGCC	0.02
GGCAGACCUCAACACGGCGUGGCAAAGUUGCUGUGGCUAGACAGCC	0.04
GGCAGACCUCAACACAGCGUGGGAAAGUGGCUGUGGCUAGACUGAC	0.22
GGCAGACCUCAACAGAGCGUGGCAAAGUGGCUGUGGCUAGGCUGCC	0.02
GGCAGACCUCUACAUAGCGUGGCAGAGUCGCUCUGGCUAGACUGCC	0.01
GGCAGACCUUAAAACAGCGUGGCGAAGUGGCUGUGGAUAGAGUGCC	0.01
GGCAGACCUGAACACAGAGUGGCAAAGUGGUGGUGGCUAGACUGCC	0.01
GGCAGACAUCAACACAGCGUGGCAAAGCGGCUGUGGCUAGACUGCG	0.08
GGCAGACCUCAACCCAACGUGGCAUAGUGGCUGUGGCUAGACUUCC	0.01
GGCAGACCUCAACACAGCGUGGCAAGGUGGCUGUGGUUAGAUGGCC	0.06
GGCAGACAUCACCACAGCGUGGCAAAGUGGCCGUGGCUAGUCUGGC	0.16
GGCAGACCUCAACAGAGCGUGGCAACGUGGCUUUGGCUAGACUGCC	0.06
GGCAGACCUCUACACAGCGUGGCAAAGUGGCUGUGGUUAGAUUGCA	0.02
GGCAGACGUCAGCACAGCGUGGCAAAGUGGCUGUGGAUAGACUGCC	0.1
GGCAGACCUCAAGACAGCGUGGCAAAGUGGCUAUGGCUAGACUGCC	0.01
GGCAGACCUCAACAUAGCGUGGCAAAGUGGCUGUGGCUAGACUGCA	0.03
GGCAGACCUCAAGAAAACGUGGUAAAGUGGAUGUGGCUAGACUGCC	0.18
GGCAGACCUCAACACAGGGUGGCGAAGUGGCUGUGGCUAGACUGCC	0.04

Variant	self-cleavage
GGCAGACCUCUGCACAGCGUGGCAAAGUUGUUUUGGCUAGACUGCC	0.01
GGCAGACCUCUACACAGCGUGGGAACGUGGCUGUGGCUAGACUGCC	0.01
GGCAGACCUCAAUACAGUGAGGCAAAGUUGCUGUGGCUAGACUGCC	0.02
GGCAGACCUCAACUCAGCGUCGCAAAGUGGCUGUGGCUUGACUGCC	0.07
GGCAGACCUCAACACAGCGUGGCAGAGUGGCUGUGGCGAGAGUGCC	0
GGCAGACCUCAACACAGAGUGGUAAAGUGGCUGUGGUUAGACUGCC	0.05
GGCAGACCUCAACACCGCGUGGCAAAGUGGCUGUGGCUGGACUCCC	0.01
GGCAGACCUCAACACAGAGUGGCAAAGUGGUUGUGGCUAGACUGCC	0.01
GGCAGACCUCAACACCUCGUGGCAAGGUGGCUGUGGCUAGACUGCC	0.58
GGCAGACCUGAACACAGCGUGGCAAAGUGGCUGUGACUAGACUGCC	0.01
GGCAGACCUCCACACAGCGUGACAAAGUGGCUGUGGCCAGACUGCC	0.02
GGCAGACCUCGUCACAGCGUGGCAAAGAGGCUGAGGCUAGACUGCC	0.01
GGCAGACCUCAACACAGCGUGGCAACGAGGCUGUGGCUAGACUGCC	0.03
GGCAGACCUCGACACAGCGUGGCAUAGUGGCUGUGGCCAGACUGCC	0.01
GGCAGACCUCAAAACAGCGUGGCAAGGUACUUGUGGCUAGACUGCC	0.03
GGCAGACCUCAAGACAGCGUGGCAAAGUGGAUGUGGCUAGACUGCC	0.05
GGCAGACCUCUACAAAGCGUGGCAAAGUGGCUGUGGCUAGACUGCC	0.02
GGCAGACCUCAAAAAAGCGUGGCAAAGUGGCUGUGGCUAGACUGCC	0.05
GGCAGACGUCAACACAGCGUGGCAAACUGGCUGAGGCUAGACUGCC	0.02
GGCAGACCUCCACACAGCGUGGCAAAGUGGCUGUGGCUGGACUGCC	0.01
GGCAGACCUCAACACAGUGUGGCAAAGUGGAUGUGGCUAGACUGCC	0.06
GGCAGACCUUAACGCAGCGUGACAAAGUGGCUUUGGCUAGACUGCC	0.1
GGCAGACCUCAUCUCAGCGUGGCAAAGUGGCUGUUGCUAGACUGCC	0.06

Variant	self-cleavage
GGCAGACCUCAGCACAGCGUGGCAAAAUGGCUGUGGCUAGACUGCC	0.04
GGCAGACCUCAGCACAACGUGGCAAAGCGGCCGUGGCAAGACUGCC	0.26
GGCAGACCUCAACACAGAGUGGCAAAGUGGCUGUGGCUAGUCUGCC	0.07
GGCAGACAUCACCACAGAGUGGCAAAGUGGCUGGGGCUAGACUGCC	0.03
GGCAGACCUCAACACAGUGUGGCAAAGUGGCUGUGGCUAGACUUCC	0.1
GGCAGACCUCGAAACAGCGUGGCAAGGUGGCUGUGCCUAGACUGCC	0.01
GGCAGACCUCAUCACAGCGUGGCAAAGUGUCUGGGGCUAUACUGCC	0.01
GGCAGACCUCACCACAGCGUGGCAACGUGGCUGUGGCUAGACUGCC	0
GGCAGACCUCACCACAGCGUUGCAAAGUGGCUGUUGCUAGACUGCC	0.1
GGCAGACUUAAACACAGCGUGGCAAAGUGGCUGUGGGUAGACUGCC	0.02
GGCAGACAUCAACAGAGCGUGGCAAAGUGGCUGUGGCUCGACUGCC	0.04
GGCAGACAUCAACACAUCGUGGCAAAGUGGCUGUGGCUAGACCGCC	0.14
GGCAGACCUCAACCCAGCGUGGCAAAGUGGCUGUGGAUAGACUGAC	0.09
GGCAGACCUCAACAUAGCGUGGCAAUGAGGCUGUGGCUAGACUGCC	0.01
GGCAGACCUUAACACAGCGUGGCAAAGAGGCUGUGGCUAGACUGCC	0
GGCAGACCUCAAAACAACGUGGCAAAGUGGCCGUGGUUAGAUUGCC	0.03
GGCAGACCUCAACACAGCGUGGCAAUGUGGCGGUGGCUAGACUGCC	0.02
GGCAGACAUCAACACAGCGUGGCAAAGUGGCUGUGGCUAGACUCCC	0.16
GGCAGACCUCAACCCAGCGUGUCAAUCUGGCUGUGGCUAGACUGCC	1.2
GGCAGACCUCUACACAGCGUGGCAAAGUGUCUGUGGCUAGACUGCC	0.02
